The record followed here is ChEMBL document CHEMBL4888484, “Replenishing the malaria drug discovery pipeline: Screening and hit evaluation of the MMV Hit Generation Library 1 (HGL1) against asexual blood stage Plasmodium falciparum ,using a nano luciferase reporter read-out” (2022).

The campaign covered roughly 150,000 compounds. About 540 (0.36%) showed an effect of 50% or more. Some of the results follow.

The test system of the assay is Plasmodium falciparum. Description: Primary screen in NF54 nanoGlo assay, in single point, at 2uM, 72h; a lower Z score goes with more inhibition. It counts as functional, Erythrocyte. The note with it: timepoint 72 hour.
Broadly, the % Inhibition is the relative decrease from the control value, in per cent. Regarding `CC1(C)CN(S(=O)(=O)c2cc(Cl)c(N)c(Cl)c2)CC[S@@+]1[O-]`, the “% Inhibition” value is -1% and the Z score is listed as 0.11.

As for `O=C(CCNC(=O)C1CCCC1)Nc1ccc(F)cc1`, the “% Inhibition” value is given as -12% and the Z score came to 2.22.

Consider `OC1CC2CCC(C1)N2c1cnc2ccccc2n1` (stereo unspecified), for which the “% Inhibition” value is reported as -9% and the Z score was 1.05.

Turning to `CC(CCOc1ccccc1)C(=O)N1CCCC1C(N)=O` (stereo unspecified), the “% Inhibition” value was -15% and the Z score is 1.31.

Regarding `Nc1cccc(C(=O)NC[C@H]2CCN(Cc3cc(F)cc(F)c3)C2)c1`, the “% Inhibition” value is listed as 10% and the Z score is -1.21.

As for `Cc1ccc2[nH]c(C(=O)N3CCOC[C@@H](CN(C)C)C3)nc2c1`, the “% Inhibition” value is -11% and the Z score worked out at 1.59.

As to `CCS(=O)(=O)N1CCN(Cc2ccc3c(c2)CCO3)CC1`, the “% Inhibition” value is 5% and the Z score was -0.77.

`O=C(N[C@@H](Cc1ccccc1)C(=O)N1CCCCC1)N1CCOCC1`: the “% Inhibition” value is given as 6% and the Z score was -0.77.

For `O=C1c2ccccc2C(=O)N1CCCCS(=O)(=O)N1CC[C@]2(CCOC2)C1`, the “% Inhibition” value was -4% and the Z score was 0.49.

Turning to `OC[C@@H]1CCCCN1Cc1cc(F)cc(F)c1`, the “% Inhibition” value is given as -9% and the Z score is listed as 1.33.

Take `C[C@@]1(C(N)=O)CCCCN1Cc1csc(-c2cccs2)n1`: the “% Inhibition” value is -3% and the Z score came to 0.34.

Take `OCC1(Nc2nccc(C(F)(F)F)n2)CC1`: the “% Inhibition” value is recorded as 14% and the Z score is listed as -1.57.

As for `Cc1nc(-c2ccc(N)nc2)c2ccccc2n1`, the “% Inhibition” value is given as -17% and the Z score is recorded as 1.57.

For the compound `Brc1ccc(-c2cn3c4ccccc4nc3n2CCN2CCCCC2)cc1`, the “% Inhibition” value was -15% and the Z score is 2.27.

As for `COCCN(C)CC(=O)NCCn1cc(C)cn1`, the “% Inhibition” value was -7% and the Z score stood at 1.32.

Turning to `CC(C)(O)Cn1nc(COc2cccc(F)c2)nc1-c1ccco1`, the “% Inhibition” value is -7% and the Z score turned out to be 0.89.

With `Cc1csc(CNC(=O)NC2CCCCC2)n1`, the “% Inhibition” value was found to be 0% and the Z score stood at 0.01.

Turning to `C[C@@]1(C(=O)NC2CCCCCCC2)Cn2c(ccc2-c2ccccc2)C(=O)N1CCc1ccccc1`, the “% Inhibition” value was -17% and the Z score is on record as 2.06.

As to `Cc1cc(-c2cc(C(=O)N[C@@H](C(=O)N(C)C)c3ccccc3)c3c(C)noc3n2)c(C)o1`, the “% Inhibition” value is on record as -1% and the Z score worked out at 0.15.

Regarding `CC1OCCC1C(=O)NCCCNc1cccc(F)c1` (stereo unspecified), the “% Inhibition” value is -18% and the Z score is listed as 2.08.

In the case of `Nc1nc(CCNC(=O)[C@H]2CC(=O)OC23CCCC3)cs1`, the “% Inhibition” value is recorded as -6% and the Z score is 1.26.

`CCOc1cc2c(cc1OCC)[C@@H]1CC(=O)N(c3ccccc3C)C(=O)N1CC2`: the “% Inhibition” value is reported as 9% and the Z score was -1.41.

In the case of `COc1ccc(Br)cc1C1NC(=O)N(CC(=O)N2CCCC(C)C2)C1=O` (stereo unspecified), the “% Inhibition” value was -2% and the Z score came to 0.3.

Regarding `COc1ccc(N2C(=O)NC(CC(=O)NC3CCc4cc(OC)c(OC)cc43)C2=O)cc1` (stereo unspecified), the “% Inhibition” value is given as -4% and the Z score is 0.45.

Consider `O=C(Nc1cccc(F)c1)c1c(O)c2cnn(Cc3ccccc3)c2[nH]c1=O`, for which the “% Inhibition” value was -13% and the Z score came out at 1.74.

Turning to `COc1nc(C)cc(NC2CC[S+]([O-])C2)n1` (stereo unspecified), the “% Inhibition” value is given as -1% and the Z score was found to be 0.17.

Turning to `CC1CCCCC1NC(=O)CN1C(=O)NC2(CCCCCCC2)C1=O` (stereo unspecified), the “% Inhibition” value was -8% and the Z score was 1.46.

Turning to `CC(=O)N1CC[C@]2(CO)CN(C(=O)c3ccc(F)cc3Cl)C[C@@H]2C1`, the “% Inhibition” value was -7% and the Z score worked out at 1.04.

Consider `Cc1ccc(NC(=O)C(=O)N(CCC#N)Cc2cccnc2)cn1`, for which the “% Inhibition” value is -8% and the Z score is 1.59.

In the case of `COc1cccc(CC(=O)Nc2ccc3c(c2)CN(Cc2ccccc2F)C(=O)[C@H](C)O3)c1`, the “% Inhibition” value is 6% and the Z score was -0.7.

In the case of `Cc1nc(Oc2ccc(-n3cccn3)cc2)ccc1C#N`, the “% Inhibition” value was -12% and the Z score is 1.45.

In the case of `CCc1ccc(NC(=O)Cc2c(C)nc3nc(-c4ccccc4C)nn3c2C)cc1`, the “% Inhibition” value turned out to be 34% and the Z score is on record as -4.53.

With `CCC(CC)C(=O)Nc1cc(C2CC2)nn1-c1nc(-c2ccccc2)cc(=O)[nH]1`, the “% Inhibition” value stood at 69% and the Z score is reported as -9.47.

`CCN1CCC[C@H](C(=O)NCc2cnc3c(c2)CCC3)C1`: the “% Inhibition” value is reported as 0% and the Z score turned out to be 0.03.

Turning to `COc1ccc2occ(C(=O)N3C[C@@H]4[C@@H](CF)[C@@H]4C3)c2c1`, the “% Inhibition” value is given as -6% and the Z score was 0.79.

In the case of `Cc1ncoc1C(=O)N1CCC([C@]2(CCC(C)C)NC(=O)N(Cc3ccccn3)C2=O)CC1`, the “% Inhibition” value is recorded as -7% and the Z score turned out to be 0.86.

For the compound `COc1ccc(CC(=O)NCCOc2ccc(-c3ccc(OC)cc3)nn2)cc1`, the “% Inhibition” value is reported as -4% and the Z score was found to be 0.78.

`CC[C@H](C)[C@H](NC(=O)c1ccc(Br)c(F)c1)C(=O)O`: the “% Inhibition” value worked out at 36% and the Z score is -5.2.

For the compound `COc1ccc2cc(-c3n[nH]cc3CN(C)CC3CCOCC3)ccc2c1`, the “% Inhibition” value came to 5% and the Z score is -0.74.

For the compound `Cc1cc(C(=O)N(C)c2cccc3ncccc23)n(C)n1`, the “% Inhibition” value was -18% and the Z score is listed as 3.13.

As for `CC(C)C[C@]1(CO)CCCN1C(=O)c1ncc(F)cc1F`, the “% Inhibition” value amounted to 0% and the Z score is -0.06.

As for `CCCn1nc(CC(N)=O)nc1C1CCN(Cc2ccco2)CC1`, the “% Inhibition” value was -2% and the Z score was 0.17.

Regarding `CCn1ccc(C(=O)N2CCCCN(C)C(=O)[C@H](C)NC(=O)COc3cc(ccc3OC)CCC(=O)NCCC2)cc1=O`, the “% Inhibition” value is given as -10% and the Z score was 1.87.
